Laboratory results: publication PMC4336329 (PLoS ONE, 2015)
About 2,200 (0.71%) of roughly 310,000 compounds showed an effect of 50% or more. Effects have a minus sign here. The list shows a part of the results.

Molecular target: human ether-à-go-go-related gene (hERG) potassium channel (human, UniProt Q12809)
Assay: primary screen, population patch clamp on CHO cells stably expressing hERG

Chain of human ether-à-go-go-related gene (hERG) potassium channel (Q12809 whole entry, looked up): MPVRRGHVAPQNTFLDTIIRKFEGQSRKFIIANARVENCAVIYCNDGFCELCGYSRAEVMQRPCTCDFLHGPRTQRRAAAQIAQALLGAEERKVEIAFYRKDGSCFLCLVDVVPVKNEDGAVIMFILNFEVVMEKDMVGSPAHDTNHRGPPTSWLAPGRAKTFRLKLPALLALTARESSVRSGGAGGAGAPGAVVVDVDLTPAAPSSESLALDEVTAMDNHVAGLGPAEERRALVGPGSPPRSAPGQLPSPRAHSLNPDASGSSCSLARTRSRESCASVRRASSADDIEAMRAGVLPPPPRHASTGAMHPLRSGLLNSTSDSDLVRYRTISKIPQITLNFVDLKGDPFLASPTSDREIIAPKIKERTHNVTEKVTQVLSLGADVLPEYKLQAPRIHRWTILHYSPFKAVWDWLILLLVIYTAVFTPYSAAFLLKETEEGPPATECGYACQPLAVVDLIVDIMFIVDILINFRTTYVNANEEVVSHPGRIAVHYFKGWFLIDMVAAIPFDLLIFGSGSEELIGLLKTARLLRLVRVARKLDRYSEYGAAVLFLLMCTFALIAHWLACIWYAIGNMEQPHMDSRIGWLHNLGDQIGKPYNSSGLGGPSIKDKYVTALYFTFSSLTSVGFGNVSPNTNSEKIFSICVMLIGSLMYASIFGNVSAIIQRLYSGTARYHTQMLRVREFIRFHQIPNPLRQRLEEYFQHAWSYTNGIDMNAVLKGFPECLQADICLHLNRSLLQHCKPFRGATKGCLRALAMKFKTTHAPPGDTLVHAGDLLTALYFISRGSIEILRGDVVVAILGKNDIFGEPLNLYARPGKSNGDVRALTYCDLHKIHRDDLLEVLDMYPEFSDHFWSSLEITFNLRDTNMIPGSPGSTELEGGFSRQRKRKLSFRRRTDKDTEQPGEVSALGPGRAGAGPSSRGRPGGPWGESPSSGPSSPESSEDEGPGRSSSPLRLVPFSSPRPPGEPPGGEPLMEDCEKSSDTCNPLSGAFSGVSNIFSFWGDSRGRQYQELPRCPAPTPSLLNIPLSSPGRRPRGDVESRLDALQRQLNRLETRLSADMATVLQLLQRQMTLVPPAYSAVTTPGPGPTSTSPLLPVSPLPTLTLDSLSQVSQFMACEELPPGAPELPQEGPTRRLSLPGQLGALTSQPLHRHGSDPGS

Structure (SMILES) | hERG current change (%, negative = inhibition) at 1uM
CN1CCC(O)(c2ccccc2)C(C(=O)c2ccccc2)C1 (stereo not drawn) | 11.4%
COc1ccc(N2CCN(S(=O)(=O)c3c(C(=O)N4CCOCC4)c(C)n(C)c3C)CC2)cc1 | 10.5%
CCOc1ccccc1NC(=O)COC(=O)c1ccc2ccccc2n1 | 18.6%
CCOC(=O)N1CCN(C(=O)Cc2ccc(-n3c(=S)[nH]c4ccccc4c3=O)cc2)CC1 | 10.1%
Cc1ccc(N2C(=O)CC(N3CCN/C3=C3\CC/C(=C\c4ccccc4)C3=O)C2=O)cc1 (stereo not drawn) | 6.97%
O=C(CCSCc1cccc(Cl)c1)NCCc1ccccc1 | 4.92%
CC(C)CNC(=O)NC(=O)COc1c(F)c(F)cc(F)c1F | 7.97%
CCC(=O)Nc1ccc(C(=O)NNC(=O)c2cccc(C)c2)cc1 | 2.55%
CCCn1c(C)cc(-c2csc(NC(=O)CCc3nc4ccccc4c(=O)[nH]3)n2)c1C | -5.66%
CC(=O)Nc1ccc(Sc2ccccc2C(=O)N2CCCC2)cn1 | 1.73%
O=c1oc(/C=C/c2ccco2)nc2sc3c(c12)CCC3 | 10.8%
CCOC(=O)c1c(C)n(C)c2ccc(OCC(O)CN3C(=O)c4ccccc4S3(=O)=O)cc12 (stereo not drawn) | 0.722%
CN1CCN(c2ccc(NC(=O)COc3cccc4ccccc34)cc2)CC1 | -27%
COc1c(F)c(F)c(C(=O)O)c(Nc2ccc(C)cc2)c1F | 12.6%
CCN(c1ccccc1)S(=O)(=O)c1ccc(OC)c(OC)c1 | 11.6%
O=C(O)C1C2C=CC(O2)C1C(=O)Nc1ccc2c(c1)OCCO2 (stereo not drawn) | 17.1%
CC1(C)CC(NC(=O)C23CCC(C)(C(=O)C2)C3(C)C)CC(C)(C)N1 (stereo not drawn) | 3.49%
C[C@@H]1C[C@H]2[C@@H]3CCC4=CC(=O)C=C[C@]4(C)[C@@]3(Cl)[C@@H](O)C[C@]2(C)[C@@]1(OC(=O)c1ccco1)C(=O)CCl | 12.2%
Cc1ccccc1N1CCN(C2=NC(=O)/C(=C/c3cn[nH]c3-c3ccccc3)S2)CC1 | 13.7%
CCOc1ccccc1CN1CCCC(C(=O)c2ccc(OC)c(OC)c2)C1 (stereo not drawn) | -51.1%
O=C(NCCCN1CCOCC1)c1ccc(Sc2ccc(Br)cc2)c([N+](=O)[O-])c1 | 6.03%
CC(C)CCN(C(=O)c1csnn1)C(C(=O)NC1CCCCC1)c1ccc(F)cc1 (stereo not drawn) | 13.5%
CCN(C(=O)COC(=O)c1cccnc1SC)C1CCCCC1 | 3.88%
Cc1nc([N+](=O)[O-])cn1-c1nc2ccccn2c1[N+](=O)[O-] | 9.1%
O=c1[nH]c(=S)n(-c2ccc(F)cc2)c(O)c1/C=N/N1CCOCC1 | 15.6%
O=C(O)/C=C/C(=O)Nc1ccc(C2(c3ccc(NC(=O)/C=C/C(=O)O)cc3)c3ccccc3-c3ccccc32)cc1 | 15.1%
COc1ccc(OC)c(Nc2ccc(C(=O)O)cc2[N+](=O)[O-])c1 | 6.05%

Structure (SMILES) | hERG current change (%, negative = inhibition) at 1uM
CN(CCCC(=O)O)c1ccc(N=Nc2ccc([N+](=O)[O-])cc2)cc1 | 8.9%
CC(=O)N1c2ccc(F)c(F)c2C[C@H]1C | 15.6%
CCN(CC)S(=O)(=O)c1ccc(NC(=O)CSc2cccc[n+]2[O-])cc1 | 6.75%
COC(c1ccccc1)c1nnc(CCC(=O)N2CCN(CCOc3ccccc3)CC2)o1 (stereo not drawn) | 13.5%
Cc1cc(C)nc(-n2ncc3c2CC(c2ccccc2C)CC3=O)n1 (stereo not drawn) | 9.18%
Cc1cccc(N2CCC(NCc3c(C(=O)N4CCCCC4)nc4c(C)cccn34)CC2)c1 | -0.865%
CCOc1ccc(-c2nn(-c3ccccc3)cc2/C=C2\SC(N)=NC2=O)cc1C | 0.077%
Cn1c(=O)c2c(nc(NCCCN3CCOCC3)n2Cc2cccc(Cl)c2)n(C)c1=O | 0.343%
C=CCCN(C(CC(C)C)C(=O)OC)S(=O)(=O)c1ccccc1Br (stereo not drawn) | 13.4%
CCC(=O)NC(=S)Nc1cccc(NC(=O)c2ccccc2Cl)c1 | 3.89%
Cc1cccc(C#N)c1 | 5.21%
Cc1nc(N2CCN(C)CC2)c2sc(=S)n(C)c2n1 | 6.99%
CN(C)c1ccc(/C=N/NC(=O)c2nnn(-c3nonc3N)c2CN(C)c2ccccc2)cc1 | 4.39%
O=C(CN1CCCCC1)Nc1nc(-c2ccc(Cl)cc2)cs1 | 10.7%
COc1cc2c(cc1O)C[C@H]1c3c(cc(O)c(OC)c3-2)CCN1C | -44.4%
CCOC(=O)Cc1csc(NC(=O)c2csc3c2CCCC3)n1 | -6.45%
COc1ccc(CNC(=O)C(NS(=O)(=O)c2cccc3nsnc23)C(C)C)cc1 (stereo not drawn) | 13.7%
COC(=O)CCCC1=CC2=CC(=O)C(C)(OC(=O)c3cccs3)C(=O)C2=CN1CCN1CCOCC1 (stereo not drawn) | -1.92%
O=C(c1ccccc1F)N1CCC2(CC1)OCCO2 | 23.5%
O=C(NC1CCCCC1)C1CCN(C(=O)c2ccc(Cl)cc2)CC1 | 5.16%
C=CCNC(=O)COC(=O)c1c2c(nc3ccccc13)CCC2 | 15.5%
CCOc1ccc2nc(NCCNC(=O)Nc3ccccc3)c(C#N)cc2c1 | 8.2%
O=C(c1ccc(N2CCCC2=O)cc1)N1CCN(c2ccccc2Cl)CC1 | 7.7%
O=C(CCCSc1nc(-c2ccco2)cc(C(F)(F)F)n1)Nc1ccc2c(c1)OCO2 | 14.8%
O=C(N/N=C/c1ccc(O)cc1O)NC12CC3CC(CC(C3)C1)C2 | 8.95%
Cc1nn(C)c(Cl)c1CN1CCCC(CO)(Cc2ccccc2)C1 (stereo not drawn) | 10.6%
COc1cc(C(=O)N/N=C/c2ccc(OC)c(CN3CCN(c4ccc(F)cc4)CC3)c2)ccc1O | -52.4%
